In PubChem BioAssay AID686978 (National Center for Advancing Translational Sciences (NCATS), 2013):
About 64,000 (15%) of roughly 420,000 compounds were called active. This list was built around the results that the source calls inconclusive (neither active nor inactive); the mix of calls is not that of the screen. Calls follow the shape of the dose curve; as a rule, active = well fitted inhibition curve with a large enough effect; inconclusive = small, poorly fitted or top-dose-only effect; inactive = flat fitted curve, though single readings scatter. No potency is given beside an inconclusive call; the fits are too rough.

Experiment: qHTS for Inhibitors of human tyrosyl-DNA phosphodiesterase 1 (TDP1): qHTS in cells in absence of CPT; also: nearly all actives have a fitted effect of over 55% in size
Settings: DT40 Tdp1-/- hTDP1 cells, no CPT, ATP luminescence, 48 h; activity change, negative = growth inhibition: at 46.2 µM (top of the series) unless noted
How it was run: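 DT40 Tdp1-/-;hTDP1 cells, no CPT (DMSO vehicle only), 400 cells/well; compounds pin-transferred; ≥48 hr, 37 °C; CellTiter-Glo 30 min RT dark, luminescence read.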
% is scaled to controls: 0 for no effect and ±100 for the full control effect; potency is read from the fitted curve at half-maximal effect; tags tell the direction and shape of the fitted curve.

Row | SMILES | Potency | activity change, negative = growth inhibition
1 | CN(CC(=O)Nc1ccccc1Cl)C(=O)COc1cccc2c1OC(C)(C)C2 | inactive | –
2 | COc1ccccc1N1CCN(S(=O)(=O)c2c(C)nc3sc(C)c(C)n3c2=O)CC1 | active: 20.6 µM | –
3 | c1ccc2oc(NC3=NCN(C4CCCCC4)CN3)nc2c1 | – | inconclusive: -31.7% [inhibitor]
4 | O=C(CNC(=O)c1cccnc1)N/N=C/c1ccc(O)cc1O | inconclusive [inhibitor, single point] | –
5 | Cc1cccc(OCCSc2nc(-c3cccs3)nc3cc(=O)[nH]n23)c1 | inconclusive [inhibitor, single point] | –
6 | CCC1CCCCN1CCCNC(=O)c1cn(CC(C)C)c(=O)c2cc(OC)c(OC)cc12 (stereo not given) | active: 1.84 µM | –
7 | Cc1cc(C)c(NC(=O)/C(=C/c2ccco2)c2ccccc2)c(C)c1 | inconclusive [inhibitor, single point] | –
8 | O=C(NN=C1C2CC3CC(C2)CC1C3)c1cc(Cl)ccc1O | inactive | –
9 | Cc1ccccc1NC(=O)Cc1nc(COC(=O)CC(C)c2ccccc2)cs1 (stereo not given) | inconclusive [inhibitor, single point] | –
10 | Cc1ccc(OCCn2nnc3ccccc32)cc1C | inconclusive [inhibitor, partial curve, poor fit] | –
11 | CCN(CC(=O)Nc1ccc(N2CCOCC2)cc1)C(=O)Cc1ccccc1 | inactive | –
12 | O=C(NCC(c1cccnc1)N1CCc2ccccc2C1)C(=O)Nc1ccccc1 (stereo not given) | inconclusive [inhibitor, single point] | –
13 | O=C(O)c1cc([N+](=O)[O-])ccc1NCCCc1ccccc1 | inconclusive [inhibitor, partial curve, poor fit] | –
14 | COc1ccccc1CNS(=O)(=O)c1ccc(F)c(C(=O)Nc2cc(Cl)ccc2OC)c1 | inconclusive [inhibitor, single point] | –
15 | COc1ccccc1N1CCN(C(=S)Nc2ccc(S(=O)(=O)N3CCOCC3)cc2)CC1 | active: 14.6 µM | –
16 | C[C@H](NC(=O)c1ncn2c1C(=O)N[C@@H](C)C2)c1ccccc1 | inconclusive [inhibitor, partial curve, poor fit] | –
17 | CC(=O)OCCN1CCN(C(=O)CN2C(=O)NC(c3ccccc3)(c3ccccc3)C2=O)CC1 | inactive | –
18 | COCC(=O)N1C[C@@H](C)[C@@H](OC)CN(C)C(=O)c2ccc(NC(=O)c3cnccn3)cc2OC[C@H]1C | inactive | –
19 | C[C@H](CO)N1C[C@H](C)[C@@H](CN(C)Cc2ccc(Cl)c(Cl)c2)Oc2c(NS(=O)(=O)c3ccc(F)cc3)cccc2C1=O | active: 23.1 µM | –
20 | O=C(c1cc(Cl)nc2ccccc12)N1CCN(S(=O)(=O)c2ccccc2[N+](=O)[O-])CC1 | inconclusive [inhibitor, single point] | –
21 | CCCOc1ccc(F)cc1-c1cc(C(=O)NC(C)C)[nH]n1 | inconclusive [inhibitor, partial curve] | –
22 | COc1ccc(N(C)S(=O)(=O)c2cccc3cccnc23)c(OC)c1 | active: 18.4 µM | –
23 | COc1cccc2c1Oc1ncccc1N(C(=O)Nc1cccc(Cl)c1)C2 | inconclusive [inhibitor, single point] | –

Row | SMILES | Potency | activity change, negative = growth inhibition
24 | Cc1cccc(C(=O)N(Cc2nc3ccccc3c(=O)[nH]2)C2CCCCC2)c1 | inconclusive [inhibitor, single point] | –
25 | COc1ccc(-c2cc(=O)oc3cc(OC(=O)C4CCCCC4)c(Cl)cc23)cc1 | – | inconclusive: -35.1% [inhibitor]
26 | CC(C)C(O)(c1ccccc1)C(CN1CCOCC1)c1ccccc1 (stereo not given) | inconclusive [inhibitor, single point] | –
27 | CC(=O)CC(c1ccc([N+](=O)[O-])cc1)c1c(O)c2ccccc2oc1=O (stereo not given) | – | inconclusive: -30.2% [inhibitor]
28 | O=C(COc1cccc2c1CCN(Cc1ccccc1F)C2=O)N1CCCCC1 | active: 20.6 µM | –
29 | CCOC(=O)N1CCN(C(=O)c2ccc(N(C)S(=O)(=O)c3ccc(C)cc3)cc2)CC1 | inconclusive [inhibitor, partial curve] | –
30 | Cc1cc(C)cc(N=C2NC(=O)CS2)c1 | inactive | –
31 | Cn1cc(C(=O)c2ccc(F)cc2)cc1-c1nc2ccccc2n1C | active: 16.4 µM | –
32 | Cc1ccc(NC(=S)NCCSc2ccc(Cl)cc2)cc1 | inconclusive [inhibitor, single point] | –
33 | O=C(NCc1ccncc1)c1ccc(S(=O)(=O)Nc2ccccc2)cc1 | inactive | –
34 | CC(=O)Nc1ccc(S(=O)(=O)Nc2c(C)n(C)n(-c3ccccc3)c2=O)cc1 | inactive | –
35 | Cc1ccc(NC(=O)COc2ccccc2C(=O)NCCc2ccccc2)cc1 | inconclusive [inhibitor, single point] | –
36 | Cc1c(C(=O)N2CCCCCC2)oc2ccccc12 | inconclusive [inhibitor, single point] | –
37 | O=C(c1ccc(N2CCCC2=O)cc1)N1CCN(c2cccc(C(F)(F)F)c2)CC1 | active: 23.1 µM | –
38 | Cc1ccc2c(c1)COc1c3ccc(C(=O)N[C@@H](CO)C(C)C)cc3nn1-2 | active: 18.4 µM | –
39 | CCOC(=O)c1ccc(N2C(=O)C(CC(N)=O)N(NC(=O)c3cccc(F)c3)C2=S)cc1 (stereo not given) | inactive | –
40 | O=C(Nc1cnn(C23CC4CC(CC(C4)C2)C3)c1)c1cnn2c(C(F)(F)F)cc(-c3ccco3)nc12 | active: 15.8 µM | –
41 | O=c1c2cccnc2[nH]c(=S)n1CCCN1CCN(c2ccccc2F)CC1 | inconclusive [inhibitor, full curve] | –
42 | CC(C)CC(=O)NC(=S)Nc1ccc(S(=O)(=O)N2CCCC2)cc1 | inconclusive [inhibitor, single point] | –
43 | O=C(Nc1nnc(C2CC2)s1)c1ccc(Cl)c(S(=O)(=O)N2CCc3ccccc3C2)c1 | inactive | –
44 | Cc1ccc(S(=O)(=O)NC(=NCC(=O)O)c2ccccc2)cc1 | inconclusive [inhibitor, full curve, poor fit] | –
45 | Cn1cnnc1Sc1ccc(/C=C(\CC(=O)O)c2nc3ccccc3s2)cc1[N+](=O)[O-] | inactive | –
